Hit rate of the full screen: of about 320,000 compounds, about 7,600 (2.4%) were called active. The inconclusive results got no clear call from the source; some entries with a clear call stand among them for comparison. The call rests on the fitted dose curve; in most records, active means well fitted activation curve with a large enough effect; inconclusive means small, poorly fitted or top-dose-only effect; inactive means no such curve, though single readings can be large or run the other way. Potencies of inconclusive entries are left out as doubtful fits.
assay: qHTS Assay for NPC1 Promoter Activators; settings: Huh7 NPC1 promoter luciferase reporter, 24 h; series mostly up to 9.22 µM; further: nearly all actives have a fitted effect of over 60% in size;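 on activation: reporter is driven by a mutant NPC1 promoter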
Summary of the method: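 Huh7 cells stably carrying NPC1 promoter–luciferase, plated in Opti-MEM with 10% FBS for 2 h, were exposed to compound in DMSO for 24 h at 37 °C; luciferase reagent was added for 10 min and luminescence read.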
Potency means the concentration at half of the fitted maximal effect; tags describe the fitted curve by direction and shape.

Row | SMILES | Potency
1 | COC(=O)c1ccccc1NC(=O)CN1CCC(n2nnc3cc(C(F)(F)F)ccc32)CC1 | inactive
2 | O=C(COc1coc(CN2CCN(c3ccccc3)CC2)cc1=O)NC1CCCCC1 | inactive
3 | O=C(/C=C/c1ccccc1)NCCC1=CCCCC1 | inconclusive [activator, partial curve]
4 | CCCCN1CCc2c([nH]c3c(C)cccc23)C1=O | inconclusive [activator, single point]
5 | COc1ccccc1NC(=O)C(C)OC(=O)c1nc2nc(C)cc(C)n2n1 (stereo not given) | inactive
6 | Oc1[nH]c2ccccc2c1N=Nc1ncnc2c1oc1ccccc12 | inconclusive [activator, partial curve]
7 | CCCOC(=O)c1ccc(Cl)c(NC(=O)c2ccc(-c3ccccc3)cc2)c1 | inconclusive [activator, single point]
8 | C(=N\Nc1ncnc2nc[nH]c12)/c1cccs1 | inconclusive [activator, partial curve]
9 | O=C(CCS(=O)(=O)c1ccc(Br)cc1)NCc1ccc(F)cc1 | inactive
10 | OC1CCCN(c2c3c(nc4cc(-c5cccc(F)c5)nn24)CCCC3)C1 (stereo not given) | inconclusive [activator, single point]
11 | Cc1cc(NC(=O)c2cc(C3CC3)on2)no1 | inconclusive [activator, partial curve]
12 | COc1ccc(NC(=O)c2ccc(C)o2)c([N+](=O)[O-])c1 | inconclusive [activator, single point]
13 | CN(C(=O)c1cccc(Nc2ccc(-c3ccc4c(c3)OCCO4)nn2)c1)C1CCCCC1 | inconclusive [activator, partial curve]
14 | COc1cc(/C=C2/C(=O)N(c3ccc(C(=O)O)cc3)N=C2C)cc(OC)c1O | inactive
15 | Cc1cc(NC(=O)c2nn3cccnc3c2Cl)no1 | active: 1.78 µM
16 | CC(C)(C)C1CCc2c(sc3c2C(=O)NC(c2ccco2)N3)C1 (stereo not given) | inconclusive [activator, partial curve]
17 | COc1ccc(/C=C/C(=O)c2cc(Cl)ccc2O)c(OC)c1 | inconclusive [activator, single point]
18 | Cc1ccc2[nH]c(O)c(N=Nc3ccccc3C)c2c1 | inconclusive [activator, single point]
19 | O=C(NC(=S)Nc1ccccc1Br)c1ccco1 | inconclusive [activator, single point]
20 | COc1ccccc1N(CC(=O)NC1CCCCC1)S(=O)(=O)c1cccs1 | inconclusive [activator, single point]

From PubChem BioAssay AID485313 (National Center for Advancing Translational Sciences (NCATS), 2010)
